The values that follow come from ChEMBL document CHEMBL4888484, “Replenishing the malaria drug discovery pipeline: Screening and hit evaluation of the MMV Hit Generation Library 1 (HGL1) against asexual blood stage Plasmodium falciparum ,using a nano luciferase reporter read-out” (2022).

The whole screen tested about 150,000 compounds, of which about 540 (0.36%) showed an effect of 50% or more. Some of the results follow.

This experiment has as its system Plasmodium falciparum. Put plainly: Primary screen in NF54 nanoGlo assay, in single point, at 2uM, 72h; a lower Z score goes with more inhibition. Type of experiment: functional, Erythrocyte. The conditions noted are these: timepoint 72 hour.
Consider `COc1ccccc1NC(=O)Cc1nnc(-c2sccc2C)o1`, for which the “% Inhibition” value is on record as -5% and the Z score was 0.47.
For `C[C@H]1C(=O)N2C[C@@H](N(C)C)C[C@H]2CN1C(=O)COCc1ccccc1` the same measures were 6% and -0.73.
As to `Fc1ccccc1CN1CC(c2nc(-c3ccco3)no2)C1`, the “% Inhibition” value is recorded as 21% and the Z score is on record as -2.43.
For `CN(CCc1cccc(Br)c1)C1CC[S+]([O-])CC1` (stereo unspecified) the same measures were -8% and 1.19.
For `N#CC1(NC(=O)c2ccnnc2)CCCCC1` the same measures were -2% and 0.17.
For `COc1ccc(NC(=O)c2c(OC)cc(=O)n3c2CCCC3)c(C)c1` the same measures were -17% and 2.69.
On to `Cc1cc(C(=O)N2CCC[C@](C)(c3noc(-c4ccncc4)n3)C2)c(C)o1`, for which the “% Inhibition” value is on record as -4% and the Z score amounted to 0.56.
For `Cc1oc(NC(=O)[C@H]2CCCO2)nc1C1CC1` the same measures were -4% and 0.72.
On to `CC(C)NS(=O)(=O)[C@H]1CCN(Cc2ccnc(N)c2)C1`, for which the “% Inhibition” value is -15% and the Z score was found to be 2.07.
For `Cc1cc(C)cc(CN2CCN(C(=O)[C@@H]3CC[C@H](C(=O)O)C3)CC2=O)c1` the same measures were 9% and -1.21.
On to `COC1CCC(CCNCc2ccccc2)CC1` (stereo unspecified), for which the “% Inhibition” value is -15% and the Z score is given as 2.25.
In the case of `Cc1c(CC(=O)N[C@H]2CCCCNC2=O)c2c(n1Cc1ccccc1)CCCC2=O`, the “% Inhibition” value was -15% and the Z score is 1.91.
For `CC(C)CC(=O)N1C[C@H](c2nc(-c3cccnc3)no2)[C@@H](C)C1` the same measures were 3% and -0.33.
Turning to `COc1ccsc1S(=O)(=O)N1CC2CCCC2C1` (stereo unspecified), the “% Inhibition” value is 2% and the Z score was -0.29.
Regarding `CC(C)n1ccc(Cn2nc(C(F)(F)F)ccc2=O)n1`, the “% Inhibition” value was -5% and the Z score turned out to be 0.61.
For `CCO[C@H]1CCN(C(=O)c2cnc(Oc3ccccc3)cn2)C1` the same measures were -2% and 0.24.
As to `N#Cc1ccc(S(=O)(=O)N2CCN(C(=O)[C@H]3CC(=O)N(Cc4ccccc4Cl)C3)CC2)cc1`, the “% Inhibition” value is listed as -5% and the Z score is given as 0.67.
For `Cc1nnc(-c2cc(C3CC3)n(-c3cccc(C(=O)NCCCc4ccccc4)c3)n2)o1` the same measures were 5% and -0.92.
For the compound `COc1cccc(C(=O)N2CCC(N3C[C@H](O)C[C@H]3C(=O)Nc3ccc(N4CCOCC4)cc3)CC2)c1`, the “% Inhibition” value is -10% and the Z score stood at 1.32.
Turning to `Cc1nc(-c2cc(S(=O)(=O)NC3CC3)cn2C)sc1C(=O)N1CCOCC1`, the “% Inhibition” value is on record as -17% and the Z score is reported as 2.07.
Turning to `Cc1cc(NC(=O)c2cc(C(C)C)[nH]n2)ccc1N1C(=O)CCC1=O`, the “% Inhibition” value is recorded as -12% and the Z score is recorded as 1.84.
Regarding `O=C(C1CCCC1)N1CC[C@@]2(O)CCN(CCOc3ccccc3)C[C@H]2C1`, the “% Inhibition” value was -6% and the Z score stood at 1.17.
With `CNc1ncc(C(=O)N2CC[C@@]3(CCCN(CC4CCCCC4)C3=O)C2)cn1`, the “% Inhibition” value is on record as -14% and the Z score stood at 2.25.

Usually % Inhibition stands for the change of the read-out against control, counted positive when it falls.
